Results published in paper PMC6919601, “Identification of Plasmodium dipeptidyl aminopeptidase allosteric inhibitors by high throughput screening” (PLoS ONE, 2019).
The whole screen tested about 110,000 compounds, of which about 230 (0.21%) showed an effect of 50% or more. The list shows a part of the results.

Molecular target: DPAP1 (Plasmodium falciparum, UniProt Q8IIJ9)
Test: primary screen, percent inhibition; read by cleavage of a fluorogenic dipeptide substrate; higher = more effect of the substance
Parameters: species or system P. falciparum D10 trophozoite lysates; single well
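Note: 30 min substrate incubation versus DMSO and 10 µM JCP410 controls.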

Chain of DPAP1 (Q8IIJ9 whole entry, looked up): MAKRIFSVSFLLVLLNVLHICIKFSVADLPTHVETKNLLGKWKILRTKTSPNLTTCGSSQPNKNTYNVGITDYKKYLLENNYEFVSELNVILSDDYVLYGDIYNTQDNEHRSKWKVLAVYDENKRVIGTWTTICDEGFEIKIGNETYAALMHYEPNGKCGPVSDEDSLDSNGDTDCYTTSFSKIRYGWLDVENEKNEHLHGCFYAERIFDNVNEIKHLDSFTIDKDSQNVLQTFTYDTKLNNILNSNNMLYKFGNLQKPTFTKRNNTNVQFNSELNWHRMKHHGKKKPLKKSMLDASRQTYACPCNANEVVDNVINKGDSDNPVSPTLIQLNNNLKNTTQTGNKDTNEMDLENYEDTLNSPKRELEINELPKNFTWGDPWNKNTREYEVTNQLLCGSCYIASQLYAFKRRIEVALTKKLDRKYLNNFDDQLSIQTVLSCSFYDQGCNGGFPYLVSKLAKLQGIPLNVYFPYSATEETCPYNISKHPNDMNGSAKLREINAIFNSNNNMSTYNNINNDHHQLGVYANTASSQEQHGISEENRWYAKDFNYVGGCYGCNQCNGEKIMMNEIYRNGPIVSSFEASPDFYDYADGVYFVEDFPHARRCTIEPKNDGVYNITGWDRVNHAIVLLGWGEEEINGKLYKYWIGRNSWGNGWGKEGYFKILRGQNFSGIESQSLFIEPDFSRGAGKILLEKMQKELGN

| SMILES | % Inhibition @ 10 uM [%] |
| --- | --- |
| CN1CCCN(Cc2ccccc2F)CC1 | -1.92 |
| O=C1CCNc2cc3ccccc3cc21 | 1.7 |
| CC(C)=C(NC(=O)c1ccccc1)C(=O)N1CCCCC1 | 1.84 |
| C=C(C)[C@@H]1CC=C(CN2CCC(C(=O)OCC)CC2)CC1 | -0.446 |
| Cn1cccc1CNCCc1ccc(F)cc1 | -5.4 |
| COc1ccc(S(=O)(=O)N2CCC(CN)CC2)cc1OC | 3.69 |
| CCOc1nc2c([nH]1)OC(N)=C(C#N)C2c1ccccc1C(C)(C)C (stereo not shown) | -0.988 |
| CNCC(=O)Nc1c2c(nc3c1CCC3)CCCC2 | -1.44 |
| CC(C)CS(=O)(=O)C1=NN2C(=N)/C(=C\c3ccc(OCC(=O)O)cc3)C(=O)N=C2S1 | 0.208 |
| COc1cccc(OC)c1-c1ccc(C(=O)N[C@@H](CC(C)C)C(=O)NCC#N)cn1 | -3.48 |
| CCCn1c(COc2ccc(C)cc2)nc2ccccc21 | -3.63 |
| CC(=O)Nc1ccc(NC(=O)C2CCN(C(=O)c3ccc(Cl)cc3Cl)CC2)cc1 | 0.231 |
| O=C(CCCNS(=O)(=O)c1cccc2nsnc12)N1CCCCC1 | -3.23 |
| CC(C)(O)C#Cc1ccc(C(=O)NCc2ccccc2)cc1 | -1.32 |
| Brc1ccc(OCc2cn3ccccc3n2)cc1 | 0.00626 |
| O=C(c1ccc(S(=O)(=O)N2CCCCC2)cc1)N1CCN(Cc2ccc3c(c2)OCO3)CC1 | -9.4 |
| CN(c1ncnc2onc(-c3ccc(Cl)cc3)c12)C1CCCCC1 | -7.65 |
| Cc1ccc(CN(Cc2ccco2)C(=O)COc2ccccc2Cl)o1 | 2.29 |
| Cc1nn(-c2ccccc2)c2c1C(c1ccco1)C(C#N)=C(N)O2 (stereo not shown) | -4.33 |
| CCN1C(=O)S/C(=C/c2ccc(-c3cccc(C(=O)O)c3C)o2)C1=O | 2.84 |
| Cc1ccccc1-n1nnc(-c2nsc(NC(=O)c3ccccc3)n2)c1C | -5.09 |
| Cc1ccc(NC(=O)CCS(=O)(=O)c2ccc(Br)cc2)cc1 | 1.89 |
| COC(=O)c1ccccc1NC(=O)c1ccc(-c2ccccc2)cc1 | 1.7 |
| Clc1cccc(-c2nnc(CN3CCc4ccccc4C3)o2)c1 | -4.47 |
| NC(=O)C1CCN(Cc2ccccc2)CC1 | -3.57 |

| SMILES | % Inhibition @ 10 uM [%] |
| --- | --- |
| CSc1ccc(CCNC(=O)c2ccc(CN3CC(=O)N4CCCCC4C3=O)cc2)cc1 (stereo not shown) | 12.4 |
| CC1(C)C(C=C(Cl)Cl)C1C(=O)NCc1ccco1 (stereo not shown) | -1.96 |
| Cc1ccc(/C=C(/NC(=O)c2ccccc2)C(=O)NCCc2c[nH]c3ccccc23)o1 | -2.88 |
| O=C(c1ccc(Br)o1)N1CCN(c2ccc([N+](=O)[O-])cc2)CC1 | 5.12 |
| CCOCCc1nnc(NC(=O)C(=O)c2cc(C)n(-c3ccc(C)cc3)c2C)s1 | -2.84 |
| CCOC(=O)c1sc2nc(C)cc(C)c2c1NC(=O)c1ccco1 | 4.19 |
| Cc1ccn2c(NC(=O)c3ccc(F)cc3)c(-c3cccs3)nc2c1 | 4.77 |
| CCOC(=O)C1=C(N)Oc2c(c(=O)oc3ccccc23)C1c1cccc([N+](=O)[O-])c1 (stereo not shown) | 2.33 |
| COc1cc(OC)cc(C(=O)Nc2sc3c(c2C#N)CCCC3)c1 | -4.75 |
| CCN1CCC(C#N)(NC(=O)[C@H](C[C@H](C)c2ccccc2)NC(=O)c2ccc(-c3ccccc3Cl)cc2)CC1 | -5.2 |
| CCCOc1ccc(-c2csc3ncn(CC(=O)Nc4ccc(C)cc4)c(=O)c23)cc1 | 5.39 |
| CC(C)(C)C(=O)NCCc1nc2ccccc2n1CCOc1ccc(Cl)cc1 | 1.12 |
| CCCCCSc1nc2n(n1)C(c1cccs1)/C(=C(\O)OCC)C(C)=N2 (stereo not shown) | 0.351 |
| Cc1ccccc1CN1CCN(Cc2ccccc2)CC1 | -1.77 |
| Oc1nc(-c2cccc(Cl)c2)nc2ccccc12 | -8.92 |
| CCC(=O)CC(Sc1cc(=O)oc2ccccc12)c1ccc([N+](=O)[O-])cc1 (stereo not shown) | -4.35 |
| O=S(=O)(Cc1ccccc1)N1CCC(c2nnnn2-c2ccc(F)cc2)CC1 | 5.43 |
| Cc1nn(-c2ccc(F)cc2)c(O)c1/C=N/c1ccc(S(=O)(=O)N(C)C)cc1 | 0.851 |
| COCCN1C(=O)c2[nH]nc(-c3ccccc3O)c2C1c1ccc(OCc2ccccc2)cc1 (stereo not shown) | 0.366 |
| N#Cc1ccc(NC(=O)c2ccccc2)cc1 | -2.18 |
| Cc1cccc(NC(=O)C2C3CCC(O3)C2C(=O)O)c1 (stereo not shown) | 2.01 |
| Nc1nonc1C(=O)NCCNCc1ccc(-c2ccccc2)o1 | -1.71 |
| Cc1cc(NC(=O)CN2C(=O)S/C(=C\c3ccccc3)C2=O)no1 | 4.54 |
| Cc1cc(O)nc(Nc2ccccc2)n1 | 1.91 |
| Cc1ccc(S(=O)(=O)N(C)CC(=O)Nc2ccccc2Sc2ccccc2)cc1 | 0.907 |

| SMILES | % Inhibition @ 10 uM [%] |
| --- | --- |
| N#CCNC(=O)C1(NC(=O)c2ccc(-c3ccc(S(=O)(=O)N4CCN(CC(F)(F)F)CC4)cc3)cc2)CCCCC1 | 3.19 |
| CCN(CC)CCNc1nc(C)cc(C)n1 | -1.69 |
| CCCN(CCC)C(=O)c1cc(-c2ccc(Cl)cc2)[nH]n1 | -5.24 |
| O=[N+]([O-])c1ccc(CN2c3ccccc3C3=C(CCCC3)C23CCCCC3)cc1 | 4.12 |
| CCc1n[nH]c(N)n1 | -5.29 |
| CC1(C)CC(=O)C2=C(C1)c1c(ccc3ccccc13)NC2c1cn(Cc2ccc(Cl)cc2Cl)c2ccccc12 (stereo not shown) | -6.08 |
| Cc1oc(-c2ccccc2)nc1CS(=O)CC(=O)NC1CCCCCC1 (stereo not shown) | -5.58 |
| CN1CCN(C(=O)c2cc3c(Cl)nc4ccccc4c3s2)CC1 | -3.99 |
| CCOc1ccc(C(=O)N2CCCc3ccccc32)cc1 | -5.92 |
| CN1CCN(C(=O)CN(c2cc(Cl)ccc2Cl)S(C)(=O)=O)CC1 | 2.63 |
| C/C=C/COC(=O)Cn1c(=O)sc2cccc(Cl)c21 | -2.58 |
| O=C(Nc1cc(Cl)ccc1O)c1cccc(N2C(=O)c3ccccc3C2=O)c1 | -1.22 |
| O=C(Cn1ncc2ccccc21)Nc1cc(-c2cccc(F)c2)no1 | 1.68 |
| CCc1nc2ccccc2n1CC(O)COc1ccc(C(=O)OC)cc1 (stereo not shown) | -2.07 |
| O=C(O)CCCCN1C(=O)c2ccccc2C1=O | -2.62 |
| CC1=C(C(=O)NCc2ccccc2)C(c2ccc(C(F)(F)F)cc2)n2ncnc2N1 (stereo not shown) | 5.93 |
| Cc1cc(C)c(NS(=O)(=O)c2ccc(NC(=O)C(F)(F)F)cc2)c(C)c1 | 7.16 |
| COc1ccc(C2SCC(=O)N2C)cc1 (stereo not shown) | 3.53 |
| CCOc1ccc(CCNC(=O)Cn2ncc3c2-c2cc(C)ccc2OC3)cc1OCC | 2.38 |
| COc1ccc(C2C3=C(O)CCCC3=NC(C)=C2C(=O)Nc2ccccc2C)cc1 (stereo not shown) | -0.864 |
| CCn1c2ccccc2n2cc(C)nc12 | -5.23 |
| Cc1cccn2c(=O)c(/C=C(\C#N)C(=O)NC3CCCC3)c(Oc3ccccc3Cl)nc12 | 2 |
| COc1ccc(NS(=O)(=O)Cc2ccccc2)c(OC)c1 | -2.35 |
| Cc1ccc(NC(=O)CN(CCc2ccccc2)S(C)(=O)=O)cc1C | 7.42 |
| CCc1c(C)nc(SCc2ccccc2)c(C#N)c1C | -2.15 |

| SMILES | % Inhibition @ 10 uM [%] |
| --- | --- |
| COc1ccc(C(=O)c2coc3c2cc(O)c2ccccc23)cc1 | -3.16 |
| O=C(Nc1ccc(NC(=O)c2cccs2)cc1)c1cccs1 | 1.57 |
| COc1ccc(NC(=O)C2(N(Cc3ccco3)C(=O)Cc3n[nH]c(N)n3)CCCCC2)cc1 | -2.74 |
| O=C(O)Cc1ccc(NC(=O)c2cccnc2C(=O)O)cc1 | 9.82 |
| CCOC(=S)/N=C(\NS(=O)(=O)c1ccc(Br)cc1)c1ccccc1 | 2.92 |
| COc1cccc(-c2coc3c2c(C)cc2oc(=O)c(CC(=O)O)c(C)c23)c1 | 17.3 |
| Cc1ccc(-c2csc(/C(C#N)=C/c3ccc(Br)cc3)n2)c(C)c1 | -2 |
| C=CCNC(=O)c1cc2c(=O)n3cc(C)ccc3nc2n(C2CCCC2)c1=N | 5.17 |
| CCN(CC)CCNC(=O)CC12CC3CC(CC(C3)C1)C2 | 1.87 |
| Cc1ccccc1OCC(=O)Nc1cccc(NC(=O)COc2ccccc2C)c1 | -4.49 |
| CCOC(=O)c1nnc(Cc2ccc(OC)c(OC)c2)o1 | 6.13 |
| COc1ccc(-c2cc(C(F)F)n3ncc(C(=O)Nc4ccc(F)c(F)c4)c3n2)cc1 | -3.24 |
| COc1ccc(CNc2ncc3c(n2)CC(C)(C)CC3=O)cc1 | 0.0539 |
| O=c1oc2c(ccc3ccccc32)c2c1SC(C(F)(F)F)C2 (stereo not shown) | -3.06 |
| CCc1ccc(CN(Cc2ccco2)C(=O)c2cccc(OC)c2)cc1 | -4.67 |
| CCCCN(C)Cc1cccc(O)c1 | -1.78 |
| O=C(O)C1C2CCC(C2)C1C(=O)Nc1nc2ccc(Cl)cc2s1 (stereo not shown) | -0.992 |
| Cc1cc(C)cc(C(=O)Nc2ccncc2)c1 | 1.27 |
| CCc1ccc(CN2CCN(c3ccc(F)cc3)CC2)cc1 | -0.197 |
| Cc1cc(-n2nc3ccccc3n2)c2oc(SCC(=O)N3CCCCC3)nc2c1 | -4.73 |
| C/C(=C\c1ccccc1)CN1CCc2c([nH]c3ccccc23)C1 | 1.88 |
| COc1cc(C(=O)N2CCN(Cc3cccc(F)c3)CC2)cc(OC)c1OC | -0.69 |
| CCC(C)c1ccc(NC(=O)CSc2nc3cccnc3[nH]2)cc1 (stereo not shown) | 1.52 |
| CC(=O)c1ccc(N2CCN(C(C)Cc3cccc(C(F)(F)F)c3)CC2)cc1 (stereo not shown) | -0.274 |
| Cc1nc(N)sc1-c1csc(Nc2ccccc2)n1 | 10.1 |
